Experimental findings from the supplement of paper PMC3334620 are described below.

Whole data set: some 33,000 sequences, median “E-score (-0.5 to 0.5)” near -0.013, cut for the highest 2% near 0.3. The list shows a part of the results.

The target of the assay is T1, Msn1 (UniProt P22148).
T1 sequence: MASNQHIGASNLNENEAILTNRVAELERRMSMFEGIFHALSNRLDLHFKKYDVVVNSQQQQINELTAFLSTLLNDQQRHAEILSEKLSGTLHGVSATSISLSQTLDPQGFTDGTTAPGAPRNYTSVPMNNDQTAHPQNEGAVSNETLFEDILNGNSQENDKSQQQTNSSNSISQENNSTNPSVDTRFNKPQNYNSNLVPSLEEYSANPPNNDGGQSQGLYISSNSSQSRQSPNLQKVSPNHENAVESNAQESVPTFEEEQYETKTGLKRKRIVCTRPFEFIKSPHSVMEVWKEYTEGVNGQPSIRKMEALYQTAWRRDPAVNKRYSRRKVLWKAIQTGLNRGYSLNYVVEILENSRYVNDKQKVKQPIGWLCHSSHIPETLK
Nature of the assay: PBM E-score (8-mer binding enrichment) (E-score (-0.5 to 0.5)); higher = stronger / more preferred TF binding; most listed sequences are background and not binding sites. To be noted: protein concentration: 200 nM; construct: GST-full length. The method, boiled down: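 Detection of bound protein used fluorescent anti-GST, with scans normalised by masliner. The proteins were GST-tagged yeast transcription factors applied at about 100-200 nM to universal all-10-mer Agilent arrays made double-stranded by primer extension. Each ungapped eight-base word, pooled with its reverse complement, was scored with an E-score from the Universal PBM Analysis Suite.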
Regarding AATGGATG, the “PBM E-score” value is -0.0531.
In the case of AATGTTTC, the “PBM E-score” value came out at 0.105.
Consider ACACAACA, for which the “PBM E-score” value is 0.0342.
To AAGAGTGC belongs -0.0251.
To ACAAGTAT belongs 0.138; to AATCGCCA, -0.24.
To AGTGGTAT belongs 0.034; to TCCCGAAA, 0.0124; to TCAAGGAA, -0.0495.
Regarding AGACTTAC, the “PBM E-score” value was -0.0717.
For the sequence ATGCTCCG, the “PBM E-score” value was -0.0598.
The same measure for ACCACCCA: 0.0438; for AATTTGGT: 0.173; for GTACGCCA: -0.123.
To ACTAAACG belongs 0.0401; to CTGACTAC, -0.104; to AACGACGA, 0.108.
The same measure for GAGAGCTA: -0.0637.
Turning to GAAGATGA, the “PBM E-score” value was -0.158.
Regarding ACCGTACA, the “PBM E-score” value was determined as 0.00044.
The same measure for CCCATGAG: -0.124; for ATGAATGA: 0.0538.
To GGAAAGCC belongs 0.019; to ATTGGCCA, -0.0723.
The same measure for TGGTGCAA: -0.249; for GTCCCTTA: 0.28; for GACCTCCA: -0.203.
Turning to TCCGGCGA, the “PBM E-score” value is 0.173.
AACGCGGC: the “PBM E-score” value was -0.0726.
As to CCGGACAA, the “PBM E-score” value is 0.452.
The same measure for GGAGTATA: -0.0705; for CGGTCTTC: -0.114; for GTGATCGA: 0.118.
To GGGAGGAA belongs -0.178; to TAGCGGCA, -0.0593.
To AAACCAGC belongs 0.052; to GAAGTGGA, -0.0423; to CGATTCCG, -0.0607.
With AGCTTACA, the “PBM E-score” value amounted to 0.0561.
The same measure for CTCGTAGA: -0.167; for AAACTATC: -0.0577.
As for ACATCATC, the “PBM E-score” value is -0.0738.
The same measure for CTGGGTGC: -0.345.
To GGCCAATA belongs -0.0111.
To ACCGGCGA belongs 0.0718; to ACTGTGAT, -0.162.
For the sequence CTCTATAA, the “PBM E-score” value is -0.0269.
In the case of CATATAGG, the “PBM E-score” value was -0.0261.
On to TACTGACA, for which the “PBM E-score” value worked out at 0.3.
As for ATAAGCAC, the “PBM E-score” value was -0.0395.
The same measure for TGCCAACA: 0.0784; for AGTTAGTG: 0.114; for AAATAGAT: 0.197.
To TATCGGGA belongs 0.178; to ACTTTTGG, 0.289; to AAACCGTG, -0.0562.
Regarding CCGTTACA, the “PBM E-score” value came to 0.0399.
The same measure for CCTGCAGC: -0.166; for GCCGCATA: 0.074; for TATCCATA: 0.0627.
To AGGCCCAA belongs -0.0893; to TTATAGAA, 0.0791.
The same measure for CGCCACAG: -0.173; for ATTGAAAG: 0.119; for CCGAAATA: 0.249.
Regarding CCTGTTTC, the “PBM E-score” value is -0.0725.
The same measure for AGCAGTCA: -0.0636; for ACATCCCT: 0.114.
The same measure for TGTAGGAA: 0.0189.
The same measure for AGGTTGAA: 0.0649; for CACGTCCC: -3e-05; for AAGAGCTG: -0.0703.
As to AAATACCG, the “PBM E-score” value came out at 0.189.
On to ATATTTCA, for which the “PBM E-score” value stood at 0.193.
To AACAAGGG belongs -0.0134.
Turning to AAACAAAC, the “PBM E-score” value amounted to 0.192.
For the sequence AAGATCTG, the “PBM E-score” value was 0.115.
CTCCCAAA: the “PBM E-score” value turned out to be 0.012.
To CGCATCAA belongs 0.0022; to AAAATGGT, 0.193.
To CAAATCAG belongs 0.113; to GGGGCCCA, -0.294.
The same measure for TACGACGA: 0.0849.
Turning to GGCTCATA, the “PBM E-score” value is -0.134.
The same measure for CATTCCGA: 0.213.
To CTGATAGC belongs -0.203.
